# Test results: article PMC6919601, “Identification of Plasmodium dipeptidyl aminopeptidase allosteric inhibitors by high throughput screening” (PLoS ONE, 2019)
# The campaign covered roughly 110,000 compounds. About 230 (0.21%) showed an effect of 50% or more. The list shows a part of the results.
# Target: DPAP1 (Plasmodium falciparum, UniProt Q8IIJ9)
# Test: primary screen, percent inhibition; read by cleavage of a fluorogenic dipeptide substrate; higher = more effect of the substance
# Parameters: species or system P. falciparum D10 trophozoite lysates; single well
# 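Note: 30 min substrate incubation versus DMSO and 10 µM JCP410 controls.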
# Chain of DPAP1 (Q8IIJ9 whole entry, looked up): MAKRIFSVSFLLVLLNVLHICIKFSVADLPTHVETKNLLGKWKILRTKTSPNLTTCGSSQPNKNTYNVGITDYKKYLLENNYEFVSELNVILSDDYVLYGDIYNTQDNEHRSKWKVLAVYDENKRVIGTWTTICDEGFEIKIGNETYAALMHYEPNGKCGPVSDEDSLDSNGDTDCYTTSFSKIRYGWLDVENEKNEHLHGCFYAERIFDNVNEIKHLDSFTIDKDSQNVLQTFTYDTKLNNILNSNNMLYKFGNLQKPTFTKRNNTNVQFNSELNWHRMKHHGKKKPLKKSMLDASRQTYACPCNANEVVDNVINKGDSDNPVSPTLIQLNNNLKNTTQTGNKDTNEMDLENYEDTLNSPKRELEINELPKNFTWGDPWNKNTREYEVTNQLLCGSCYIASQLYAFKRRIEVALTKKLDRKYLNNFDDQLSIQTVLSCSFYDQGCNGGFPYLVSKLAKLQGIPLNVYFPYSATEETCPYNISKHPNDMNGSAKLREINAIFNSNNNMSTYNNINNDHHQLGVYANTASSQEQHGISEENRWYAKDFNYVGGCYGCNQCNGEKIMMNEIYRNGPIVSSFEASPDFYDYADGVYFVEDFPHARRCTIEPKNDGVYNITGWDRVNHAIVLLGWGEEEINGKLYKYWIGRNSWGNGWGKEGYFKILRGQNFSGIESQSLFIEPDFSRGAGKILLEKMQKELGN
row,SMILES,% Inhibition @ 10 uM [%]
1,Cc1sc(NC(=O)CSc2nnc3c4ccccc4n(C)c3n2)nc1-c1ccccc1,-3.87
2,Cc1ccc(C2C(=O)c3ccccc3C2=O)cc1,-3.38
3,COc1ccc(C2C(=O)N(C3CCCCC3)CC(=O)N2CC2COc3ccccc3O2)cc1 (stereo not drawn),-2.26
4,N#CC1=C(N)Oc2ccc3ccccc3c2C1c1cccc(F)c1 (stereo not drawn),-0.294
5,CN(C)CCN(C)Cc1cccc(Br)c1,0.526
6,C=CCSc1nc2nc3c(cc2c(=O)n1CC=C)CC(C)(C)OC3,-2.37
7,NC(=O)c1c(NC(=O)Nc2ccccc2)sc2c1CCCCCC2,9.97
8,CCCN(CCC)S(=O)(=O)c1ccc(NC(=O)C2CCCCC2)cc1,-1.63
9,N#C/C(=C\c1ccc(-c2cccc(C(=O)O)c2)o1)c1nc2ccccc2[nH]1,35
10,CC(=O)c1ccc(NC(=O)c2ccc(Br)o2)cc1,-4.15
11,CCCN1CCC2(CC1)NC(C(=O)O)Cc1c2[nH]c2ccccc12 (stereo not drawn),5.03
12,NC1=NC(=O)/C(=C\c2ccccc2Br)S1,-1.85
13,CCOC(=O)c1nccn1Cc1ccccc1Cl,0.0198
14,Cc1cc2ccccc2n1CCNC(=O)c1ccc(-c2ccccc2)cc1,4.78
15,Cc1cccc(-n2ncc3c2ncn2nc(-c4ccccc4Cl)nc32)c1,-0.386
16,CC(C)c1ccc(S(=O)(=O)c2cnc3ccc(Cl)cc3c2O)cc1,-9.07
17,CC(C)C1=C2CCCCC2NC(=O)N1 (stereo not drawn),-2.51
18,Cn1c(-c2ccc(C#N)cc2)nc2ccccc21,5.55
19,CS(=O)(=O)N(CC(=O)N1CCN(c2ccc(F)cc2)CC1)c1ccc(Cl)c(C(F)(F)F)c1,1.62
20,CCCOc1ccc(C(=O)Nc2c(NC)c3ccccc3oc2=O)cc1,-2.3
21,O=c1c(Cl)c(N2CCN(c3ccccn3)CC2)cnn1-c1nc2ccccc2o1,-0.999
22,CN(CC(=O)NCc1ccccn1)S(=O)(=O)c1cccc2nsnc12,0.317
23,COCc1cc(C)nc2sc3c(c12)NC(c1ccco1)n1c-3nc2ccccc21 (stereo not drawn),-4.49
24,O=C(Cn1cnc2onc(-c3ccc(F)cc3)c2c1=O)NC1CCN(Cc2ccccc2)CC1,4.88
25,Cc1ccccc1N1CCN(CC#N)CC1,1.64
26,CCOC(=O)c1c(-c2ccc(C)cc2)csc1N,8.16

row,SMILES,% Inhibition @ 10 uM [%]
1,Cc1cc(C)cc(NC(=O)c2ccc(Cl)cc2)c1,5.56
2,O=C(CSc1nc2ccc(NC(=O)c3ccccc3F)cc2s1)NCC1CCCO1 (stereo not drawn),3.65
3,CN1CCN(CCc2nnc(S)n2-c2ccc(C(F)(F)F)cc2)CC1,5.69
4,CN1C(=O)CC(c2cn(Cc3ccccc3)c3ccccc23)C1=O (stereo not drawn),-7.35
5,Cc1cc(C)cc(NS(=O)(=O)Cc2ccccc2)c1,-0.582
6,Cc1nn(C)c(C)c1NS(=O)(=O)c1ccccc1,0.414
7,O=C(O)c1ccc(-n2nc(C(F)(F)F)c3c2CCCC3)cc1,-5.49
8,CCOc1ccc(-c2nn3c(Cc4ccccc4)nnc3s2)cc1,4.96
9,CC(C)C[C@H](NC(=O)c1cccc(C(=O)N2CCN(C)CC2)c1)C(=O)NCC#N,-5.64
10,Cc1nn(Cc2cccc(C(=O)Nc3nccs3)c2)c(C)c1Br,-8.16
11,CC(C)C[C@H](NC(=O)c1ccc(-c2ccoc2)cc1)C(=O)NCC#N,-1.41
12,COc1cc(CN2CCc3c([nH]c4ccccc34)C2)cc2c1OCO2,-5.11
13,CCOc1ccc(C(=O)C[n+]2ccc(C(=O)NCCO)cc2)cc1,-3.69
14,Cc1oc2ncn(C)c(=O)c2c1C(=O)NCCCN1CCOCC1,-3.95
15,Fc1ccccc1CN1CCN(Cc2ccccc2)CC1,1.63
16,CCOc1cc(-c2nc(-c3ccc(C)nc3OC)no2)cc(OCC)c1OCC,-3.13
17,CCOC(=O)c1cnc2ccc(OCC)cc2c1N1CCN(C)CC1,-4.93
18,CC1(C)CC(=O)C(/C=N/C(CC(=O)O)C(=O)O)=C(O)C1 (stereo not drawn),2.17
19,Cc1ccc2c(CN3CCN(C(=O)CCc4ccccc4)CC3)cc(=O)oc2c1,-2.84
20,CN1CCN(C(=O)CSc2nc3ccc(N4C(=O)c5ccccc5C4=O)cc3s2)CC1,-0.25
21,Cc1ccc(C)c(NC(=O)Cc2ccccc2)c1,2.46
22,COc1ccc2[nH]c(SCCOc3ccc(F)cc3)nc2c1,-6.36
23,O=C(O)c1cccc(NC(=O)c2ccc(Br)c(S(=O)(=O)N3CCCCC3)c2)c1,2.73
24,CCS(=O)(=O)NCc1csc(C)n1,-6.33
25,CC[n+]1cn(CC(O)COc2ccc(OC)cc2)c2ccccc21 (stereo not drawn),-1.6
26,O=C1O[C@@H]2C[C@H]3C[C@@H]2[C@@H]1[C@H]3C(=O)N1CC=C(c2ccccc2)CC1,2.21

row,SMILES,% Inhibition @ 10 uM [%]
1,CN(CC(=O)NCCc1ccccc1)S(=O)(=O)c1ccc(F)cc1,1.03
2,COc1ccc(C2C=C(c3cccnc3)Nc3ncnn32)c(OC)c1OC (stereo not drawn),5.01
3,CC(C)=CCC/C(C)=C/CN1CCN(C/C=C/c2ccccc2)CC1,0.0792
4,O=C(NC1CCCc2ccccc21)C1CCN(S(=O)(=O)c2cccc3cccnc23)CC1 (stereo not drawn),3.53
5,CCOc1ccc(C2CC(=O)Nc3c2c(C)nn3-c2nc3ccccc3s2)cc1OC (stereo not drawn),-2.88
6,Fc1ccccc1CN1CCC(N2CCCCC2)CC1,3.15
7,COc1cccc(Cn2c(C)c(CNCc3cccnc3)c(C(=O)O)c2C)c1,-5.49
8,Clc1cccc(N2CCN(C3CC4CCC3C4)CC2)c1 (stereo not drawn),-1.15
9,CCOc1ccc(C2C(C(=O)OC)=C(C)N=c3s/c(=C\c4ccccn4)c(=O)n32)cc1OCC (stereo not drawn),1.91
10,CC1CCN(c2ccc3nnc(CCC(=O)NCC4CCCO4)n3n2)CC1 (stereo not drawn),-4.32
11,CCN(CC)c1ccc(NC(=O)C2CCCCC2)c(C)c1,1.17
12,CC(C)N1C(=O)S/C(=C/c2ccc3c(c2)n(C)c(=O)n3C)C1=O,-1.61
13,COc1ccc(CNC(=O)c2ccc3oc(=O)c(S(=O)(=O)c4ccc(F)cc4)cc3c2)cc1,-1.3
14,CCc1nc(S(C)(=O)=O)c(C#N)cc1C,-0.143
15,CC(C)C(=O)NCCN1CCOCC1,1.83
16,CCOC(=O)Nc1ccc2c(c1)Nc1ccccc1C=C2,-0.736
17,CCOC1=CC(=O)N(Cc2ccccc2)C1,-5.31
18,CCOc1ccc(CN(CCO)CCO)cc1C(=O)OC,-10.9
19,COc1ccc(OC)c(CNS(=O)(=O)c2c(C)nc3scc(C)n3c2=O)c1,-1.27
20,O=S(=O)(c1ccc(Br)cc1)N1CCN(S(=O)(=O)c2ccc3ccccc3c2)CC1,6.79
21,CCOC(=O)c1c(N)c(C#N)c(C)n1-c1ccc(Cl)cc1,-7.99
22,CC1=C(c2ccc(C)cc2)S(=O)(=O)N=C1N1CCC(C)CC1,5.42
23,CC(=O)c1cn(CCCCn2cc(C(C)=O)c(=O)[nH]c2=O)c(=O)[nH]c1=O,-0.641
24,CN(C)CCCn1nnc2c(=O)oc3ccccc3c21,-2.42
25,O=C(Cn1c(=O)sc2ccccc21)NC1CCCCC1,1.87
26,CCc1ccc(Oc2nc3ccccn3c(=O)c2/C=C(\C#N)C(=O)OC)cc1,11

row,SMILES,% Inhibition @ 10 uM [%]
1,O=C1CSC(c2ccc(Cl)cc2)N1c1ccccc1 (stereo not drawn),-5.31
2,CCn1ncc(C2=NOC(C(=O)NCC(C)C)C2)c1C (stereo not drawn),-4.85
3,CC(=O)N1CCN(Cc2ccc(Br)s2)CC1,-0.446
4,CCN(CC)CCN(CC)CCc1ccccc1,0.217
5,CCOC(=O)C1=C(C)N=c2s/c(=C\c3ccc(C(C)C)cc3)c(=O)n2C1c1ccccc1 (stereo not drawn),-3.14
6,CCC(=O)N1c2ccccc2N=C2CC(c3ccco3)CC(O)=C2C1c1ccc(OC)c(OC)c1 (stereo not drawn),2.38
7,COc1ccc(-n2nc3c(c2NC(=O)C(C)C)CS(=O)(=O)C3)cc1,-4.65
8,COc1cccc(C(=O)Nc2nc(C)c(C(=O)N(C)C)s2)c1,-2.76
9,COc1cc(CNCCO)cc(Br)c1OCc1cccs1,-7.99
10,O=C(Cn1ncc2c(=O)oc3ccccc3c21)NCC1(c2ccccc2)CCCC1,-1.03
11,COc1ccc(C(=O)Nc2ccc(S(=O)(=O)N3CCC(C)CC3)cc2)cc1Br,2.42
12,Cc1ccc(C2CC(C(F)(F)F)n3ncc(C(=O)N(C)Cc4cn(C)nc4C)c3N2)cc1 (stereo not drawn),6.52
13,O=C1CC(c2ccco2)CC(=O)C1=CNCCN1CCN(C(=O)c2ccccc2)CC1 (stereo not drawn),0.131
14,COc1ccc2[nH]cc(CCNc3nn(-c4ccc(F)cc4)nc3C(C)=O)c2c1,-5.33
15,CC1CCCCN1C(=O)c1cnn(-c2ccccc2)c1-n1cccc1 (stereo not drawn),3.2
16,CCCCCCCc1c(C)nn(-c2nnc3c(n2)[nH]c2ccc(Br)cc23)c1O,4.26
17,O=C(CSc1nc2ccccc2o1)c1ccc(Cl)cc1,5.24
18,O=C(O)C1C2CCC(O2)C1C(=O)NCc1ccco1 (stereo not drawn),1.87
19,CCOc1ccccc1NC(=O)C(C)Oc1ccc(C)cc1 (stereo not drawn),-5.13
20,CCn1c(/C=C/c2ccc(F)cc2)nc2ccccc2c1=O,-6.05
21,CCN1CCN(C(=O)c2ccc(NS(=O)(=O)c3cc(C)ccc3C)cc2)CC1,-2.85
22,Cc1ccc(-c2nc(CS(=O)(=O)CC(=O)N3CCc4ccccc4C3)c(C)o2)cc1,-0.138
23,C=CCSc1nc2ccccc2c(=O)n1-c1ccc(OC)cc1,-1.26
24,COc1ccc(NC(=O)CN2CCCCC2)cc1,-1.29
